Results published in the supplement of paper PMC3334620.
The full ranking holds about 33,000 sequences; the median of “E-score (-0.5 to 0.5)” is about -0.017, and the highest 2% start at about 0.3. The list shows a part of the results.

These sequences were tested against T1, Sut1 (UniProt P53032) (assay: PBM E-score (8-mer binding enrichment) (E-score (-0.5 to 0.5)); higher = stronger / more preferred TF binding; most listed sequences are background and not binding sites). Conditions: protein concentration: 200 nM; construct: GST-full length.
T1 sequence: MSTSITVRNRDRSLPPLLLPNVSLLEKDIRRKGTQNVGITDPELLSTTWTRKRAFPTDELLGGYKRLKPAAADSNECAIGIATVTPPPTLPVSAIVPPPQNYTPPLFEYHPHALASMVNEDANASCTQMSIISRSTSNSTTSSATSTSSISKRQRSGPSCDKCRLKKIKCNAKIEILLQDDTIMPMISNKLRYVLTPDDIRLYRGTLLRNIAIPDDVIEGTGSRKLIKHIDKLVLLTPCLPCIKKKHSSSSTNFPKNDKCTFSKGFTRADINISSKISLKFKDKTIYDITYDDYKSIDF
Method: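 Universal 'all 10-mer' protein binding microarrays (Agilent AMADID 015681) probed with GST-tagged S. cerevisiae TFs (full-length or DBD) made by in vitro transcription/translation (PURExpress), about 100-200 nM. Bound TF was detected with fluorescent anti-GST. Each ungapped 8-mer (which stands for itself and its reverse complement) is scored by the PBM enrichment score (E-score), a modified Wilcoxon-Mann-Whitney statistic from -0.5 to +0.5, computed with the Universal PBM Analysis Suite. Scale: above 0.35 generally sequence-specific binding.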

Sequence	PBM E-score
CGAGACGA	-0.163
GGCGCCCC	-0.15
AGCGCATC	-0.0758
TGCTGAAA	0.0314
ATGCCATG	-0.0571
CATCGCGG	-0.0604
TACAGGTA	0.038
CTGTCTCC	0.0644
ACGCTCCT	-0.168
AAATCACT	0.134
AACAACGA	0.139
CAGGGCGG	-0.0156
AATGACAA	0.166
AGGTCACA	-0.328
GCGGTCAC	-0.123
TAGGCGAA	0.0159
AGGACCTA	-0.0435
ACGAGACC	-0.104
CGCAGGCG	-0.291
CCTCGTAA	0.104
AGCGATAG	-0.19
CCATGTTA	-0.0625
ACAGAGAG	-0.328
AGCGTCGG	0.0953
TAATACCA	0.208

Sequence	PBM E-score
AACTTCTA	0.131
CCAGTTTA	0.018
ATAGCAAC	0.118
AAGAGGGA	-0.2
TCGCCGCA	0.038
CGACGCAA	-0.0434
AGGTGTGA	-0.236
AGAGACGG	-0.0502
AGTCTGTC	-0.0639
ACTAGTGG	0.0275
TAATTTGA	0.0943
CATGTCGA	-0.0193
TACTTATA	0.151
AAAGATCT	-0.0291
AAACCTTT	0.199
TCCGGCCA	0.209
ATCTCGCC	-0.215
CGCATCAC	-0.119
ATACGTTG	-0.0628
TATAGCCA	0.0639
CGGCAGTC	0.0702
CGGCGGCA	-0.146
CCAGTTCC	-0.131
AAGCTAGT	0.0677
AACCAATT	0.168

Sequence	PBM E-score
CTTTGAAA	0.17
TCAGTCCA	-0.317
GCTGTCCA	-0.145
ATCAATAA	0.0538
AAGTCGAA	-0.067
CGCTGCGC	-0.262
AACCGCTA	0.0225
CGTCAAAC	-0.0738
TAACGCTA	0.14
AATTGGGA	0.0631
AACCTGTG	-0.188
ATGGCTTG	-0.0924
ATTTACTG	0.181
AACAATGT	0.163
CCGCGCAA	0.026
CGATTCGA	0.101
ACACTAGT	-0.0821
AATGCCCC	-0.278
CGACGCTC	0.00691
AGGTTGTC	-0.219
GTTTGCAA	0.161
CCTAGTCG	-0.21
CTACGAGC	-0.331
CTGGGCCC	-0.166
ACTCAAGA	0.0905

Sequence	PBM E-score
CTGCACAC	-0.246
ACGCTGTC	-0.0588
AAGGCCTC	-0.0551
ATATTTTC	0.183
AGTAAATA	0.282
AGATAGCG	-0.0403
AACGACCG	-0.21
ATCTCTGC	-0.124
GTGCAGTA	-0.171
GAGCTGGA	-0.142
GCCAACAC	0.0788
CAATCTTC	0.148
TGGTTTAA	0.264
ATTCCCCC	-0.0696
ATCTCGTG	-0.147
ATCACTCC	0.102
ATACGCAG	-0.2
CACGCCCC	-0.118
CGACTGAC	-0.124
GATAGCTA	-0.127
CAAATATC	0.202
GTACCAGA	-0.206
ACGCTTCT	-0.0542
CCCGTACA	-0.288
ATGAACCC	0.00896

Sequence	PBM E-score
GGTGCAGA	-0.28
CGGGAGCA	-0.0121
CACTTTGC	0.0519
GCAGCAAC	-0.133
TATGTCCA	-0.114
CTCCCTGA	-0.313
ATATTGAG	0.181
AAGCTAAC	0.0679
AGACCCAT	-0.19
ACGGAGAA	0.362
AATTGCCT	-0.00731
CCGTCTTC	0.101
CACCAAAG	0.0334
CTACCTGA	-0.128
GATGCAGC	-0.0635
CAATTTCC	0.126
ATACATCC	0.00718
CAACTAGG	-0.0692
AGCGCTGG	-0.185
AATCCATT	0.104
AACTTCCA	0.06
AGGCCGAT	-0.0189
CAACCGCA	0.0447
ATGATCTC	-0.0262
CACCACCC	-0.0706

Sequence	PBM E-score
CGTACTTA	0.027
GACCGCCA	-0.216
AACTTGGG	-0.0482
AAGCTCGC	0.0319
CGTGAGTA	-0.055
GAGAAGGC	-0.0615
AAATAGTC	0.137
GGAATCTA	0.122
CACTCCCC	-0.084
CCATGGGG	-0.252
CGAGGTGA	0.0936
CACTCTGG	-0.263
AGCCAATA	-0.0262
CATATTGG	0.112
CTTGGCGC	-0.0987
CGATAGAA	0.0498
CAGTTCGC	0.0244
GAAATCAA	0.0471
AATAAAGC	0.188
AGGATCGG	-0.00265
AGACCCGC	-0.269
TAAATCAA	0.269
GATCAGCA	-0.0614
ACCGGAGG	0.133
AGACCCCA	-0.173

Sequence	PBM E-score
ACGGATCG	-0.0493
ACAGAGGA	-0.211
TGAGCCCA	-0.251
ATGAGACG	-0.112
ACGGTCTA	-0.0922
TGCTTACA	-0.174
GCACGGAC	0.289
ACGTATTG	0.0683
AGCAACAG	0.0514
CGCGTCTA	-0.0249
GCTCCGGA	0.442
ACAAGAGT	0.166
ATAAGAAG	0.178
ATGTTCAG	-0.139
CTGACACA	-0.147
CACTGTAA	0.104
CATTACTA	0.0871
ATACGCCC	-0.112
GAGGGGGC	-0.388
CAAGCAGC	-0.0879
ATCCACGA	0.0124
AGGTTCTA	-0.042
GGAGTTAA	0.337
ATCAGTGA	-0.071
AAAATGCT	0.136

Sequence	PBM E-score
CGATGTCC	0.164
CCTATGAC	-0.2
CGTGGTCC	-0.246
AGAAGGTA	0.124
AGTTGAGC	-0.191
CCACAGGG	-0.243
CTGGCGAA	-0.195
AAGTCGAG	-0.0466
GGCCCGCC	-0.386
CAGTCTTA	0.0114
GTTTAGAA	0.244
GTTCATTA	0.107
AACTAAGC	0.115
GAGACCCA	-0.139
ACCAGGTG	-0.283
CATTGCTC	0.1
GAAAATAA	0.229
ATTCGTTC	0.242
GAAAACTC	0.263
AGAAGGAC	-0.0297
CTGAGATC	-0.209
ATCTGAGC	0.113
ATTTCAAC	0.191
CGAGGCAG	-0.132
TCATGCGA	-0.129

Sequence	PBM E-score
ACGACGGA	0.183
CAGGGAGA	-0.138
TACCTCTA	0.0421
CTCCGAGA	0.459
AAGTTGGG	-0.192
AACTCTGC	-0.0826
ATTTCGCG	0.166
GGAAACTA	-0.115
CAACCCGA	-0.0397
AGGAGTGA	-0.0299
ATTAATTA	0.188
AAACTACC	0.121
CGTTTCGA	-0.112
ACGTGGCC	-0.346
AAACACGG	-0.0101
ACGCGAAG	-0.147
AGAGGGGG	-0.322
ACATGGCA	-0.00576
ACATTGTG	-0.221
